Out of some 370,000 compounds screened, about 150 (0.041%) were called active. Inconclusive results, whose numbers are uncertain, are shown with a selection of clear calls. Calls follow the shape of the dose curve; as a rule, active = well fitted inhibition curve with a large enough effect; inconclusive = small, poorly fitted or top-dose-only effect; inactive = flat fitted curve, though single readings scatter. No potency is given beside an inconclusive call; the fits are too rough.
Each compound was assayed against Beta-lactamase (Escherichia coli (strain K12)) (UniProt P00811) (assay: qHTS Inhibitors of AmpC Beta-Lactamase (assay with detergent)). Settings: AmpC hydrolysis of nitrocefin, absorbance 480 nm, 0.01% Triton; series mostly up to 114 µM.
Chain of UniProt P00811 (P00811 whole entry, looked up): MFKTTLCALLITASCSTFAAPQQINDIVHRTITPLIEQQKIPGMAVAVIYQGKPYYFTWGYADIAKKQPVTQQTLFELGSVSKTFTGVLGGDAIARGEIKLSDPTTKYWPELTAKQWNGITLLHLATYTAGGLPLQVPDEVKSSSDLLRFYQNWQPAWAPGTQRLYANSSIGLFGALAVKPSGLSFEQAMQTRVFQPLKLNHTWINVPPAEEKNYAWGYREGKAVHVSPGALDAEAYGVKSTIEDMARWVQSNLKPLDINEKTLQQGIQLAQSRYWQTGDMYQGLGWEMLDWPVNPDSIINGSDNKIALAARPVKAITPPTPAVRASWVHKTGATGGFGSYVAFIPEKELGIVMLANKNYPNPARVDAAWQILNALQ
Summary of the method: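 20 mM phosphate pH 7.0 + 0.01% (detergent screen) or 0.0001% Triton X-100; 5.3 nM AmpC reagent; cpd preinc 15 min RT; nitrocefin (800 uM stock) to start; A480 q20 s × 4 min; Activity was normalised to no-enzyme and no-compound control wells.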
Also: nearly all actives have a fitted effect of over 25% in size.
Potency is read from the fitted curve at half-maximal effect; tags tell the direction and shape of the fitted curve.

Row | SMILES | Potency
1 | O=C(CNS(=O)(=O)c1ccc(F)c(Cl)c1)N1CCCC1 | inactive
2 | CCOCC(=O)Nc1nc2ccc(C)cc2s1 | inconclusive [inhibitor, partial curve]
3 | Cc1cccn2c(=O)nc(SCC(=O)N3CCN(c4ccccc4)CC3)nc12 | inconclusive [inhibitor, full curve]
4 | CC(=O)O[C@H](CC(=O)O)C[N+](C)(C)C | inconclusive [inhibitor, full curve, poor fit]
5 | O=c1c2ccccc2nc(/C=C/c2ccc(Br)cc2)n1CCCO | inactive
6 | COc1cc(CNc2ccc(NC(C)=O)cc2)ccc1OCc1ccccc1C | inactive
7 | O=C(Cc1ccc(-c2ccccc2)cc1)NCCS(=O)(=O)N1CCN(c2ccccc2F)CC1 | inactive
8 | COc1cccc(C(=O)N2CCn3c2nc2ccccc23)c1 | inactive
9 | COC(=O)c1ccc(N2C(=O)CC(Sc3n[nH]c(C)n3)C2=O)cc1 (stereo unspecified) | inactive
10 | CN(C)c1nnnn1-c1ccc(Oc2ncc(C(F)(F)F)cc2Cl)cc1 | inactive
11 | O=[N+]([O-])NC1=NCN(Cc2ccco2)CN1Cc1ccco1 | inactive
12 | CCn1c(SCc2ccc(Cl)cc2)nc2nc3c(cc2c1=O)CCCC3 | inconclusive [inhibitor, full curve, poor fit]
13 | COCCCC1CCN(C(=O)C2CCC(=O)N(C3CCCCCC3)C2)CC1 (stereo unspecified) | inconclusive [inhibitor, partial curve, poor fit]
14 | CCCCCCOC(=O)CCn1[nH]c(=O)c2ccccc2c1=O | inconclusive [inhibitor, full curve, poor fit]
15 | COC(=O)c1cc(-c2ccccc2)sc1N | inconclusive [inhibitor, single point]
16 | O=C(CSc1nc(N2CCCCC2)nc(N2CCCCC2)n1)N1CCN(c2ccccc2)CC1 | inconclusive [inhibitor, partial curve]
17 | Cc1cc(=O)[nH]c(N2CCc3ccccc3C2)n1 | inconclusive [inhibitor, full curve, poor fit]
18 | Cc1ccc(NC(=O)c2cccs2)cc1NC(=O)c1cccc(F)c1 | inconclusive [inhibitor, full curve, poor fit]
19 | COc1ccccc1OCC(=O)NNC(=O)C1CCN(c2ncnc3sc(C)c(C)c23)CC1 | inactive
20 | CCCCCCOC(=O)C(C#N)c1nc2ccccc2nc1N1CCN(CC)CC1 (stereo unspecified) | inconclusive [inhibitor, full curve, poor fit]
21 | CC(C)C(NS(=O)(=O)c1cccc2nsnc12)C(=O)Nc1nc2ccc(Cl)cc2s1 (stereo unspecified) | inconclusive [inhibitor, full curve, poor fit]

Source: PubChem BioAssay AID485294 (National Center for Advancing Translational Sciences (NCATS), 2010)
